Measurements from patent US20040265960A1 (Pfizer, published 2004).

Molecular target: human IL-21R expressed on cells (human, UniProt Q9HBE5 20-538)
Test: cell-based or functional assay

Chain of UniProt Q9HBE5 (Q9HBE5 20-538): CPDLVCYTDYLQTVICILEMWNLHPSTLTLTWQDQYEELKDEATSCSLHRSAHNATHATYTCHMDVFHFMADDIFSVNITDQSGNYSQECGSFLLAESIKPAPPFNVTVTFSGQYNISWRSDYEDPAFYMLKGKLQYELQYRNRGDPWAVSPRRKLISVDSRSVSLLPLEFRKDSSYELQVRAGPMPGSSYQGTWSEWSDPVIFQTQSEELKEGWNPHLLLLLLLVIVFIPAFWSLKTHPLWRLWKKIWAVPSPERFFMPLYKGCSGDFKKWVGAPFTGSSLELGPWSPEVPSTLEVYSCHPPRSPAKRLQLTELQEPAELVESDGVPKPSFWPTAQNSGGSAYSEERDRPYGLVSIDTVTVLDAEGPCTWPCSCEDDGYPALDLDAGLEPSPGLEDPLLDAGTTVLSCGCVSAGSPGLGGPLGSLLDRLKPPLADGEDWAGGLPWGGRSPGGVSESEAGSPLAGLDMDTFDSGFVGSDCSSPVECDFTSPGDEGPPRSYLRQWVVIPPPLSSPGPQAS

IC50 Value (nM) ScFv, hBaf3Mu-1 cell proliferation assay: 329 nM
B1: CP5G2 scFv (scFv)
scFv: [about 100 residues not given here]GWKLPFFAYWGRGTLVTVSSGGGGSGGGGSGGGGSALSSELTQDPAVSVALGQTVRITCQGDSLRTFYANWYQQKPGQAPILVIYGKSNRPSGIPDRFSGSSSGNTASLTITGAQAEDEADYYCYSRDRSGNHLGMFGGGTKLTVLG
